Measured values published in US10745487B2, “Method of treating cancer by administering an anti-LGR5 monoclonal antibody” (Bionomics Limited, priority 2016, dated 2020).

Tests used:
[1] = tested on: CT3 tumor cells (cancer stem cell frequency); experiment: CT3 limiting dilution re-implant assay; type: in vivo, CB17.Scid mice
From the text: The mice were then monitored 2× per week for tumor growth, and tumors allowed to grow with no further treatment.

[2] = tested on: CT1 tumors gene expression; experiment: Gene array hybridization of CT1 tumors at day-3; type: in vivo, mice
From the text: Expression of 18G7H6A3-targeted genes were investigated in early vs. late tumorigenesis. […] Total RNA from each tumor at day-3 was harvested and prepared for gene array hybridization using Illumina human chips.

[3] = tested on: JH109 primary patient derived xenograft of pancreatic cancer; experiment: JH109 primary patient derived xenograft tumor growth; type: in vivo, mice
From the text: The JH109 xenograft model is from a patient that had received four treatment regimens including 5-FU, Gemcitabine, Erbitux and radiotherapy. The original patient tumor has been passaged in immune-deficient mice continuously without any exposure to in vitro culture. […] Three mice treated with the 18G7H7A3 chemotherapy combination had complete eradication of their tumor (no measureable tumor detected).

CT3 tumors = experiment: CT3 tumor growth, combination with FolFiri; type: in vivo, CB.17 SCID mice; conditions: for tumor volume reduction, combination treatment compared to FolFiri regimen: 18G7H6A3 15 mg/kg twice per week in combination with FolFiri
From the text: CB.17 SCID mice were implanted with CT3 cells grown under CSC conditions.

MDA-MB-231-LM3 model = experiment: MDA-MB-231-LM3 paclitaxel combination and limiting dilution re-implant; type: in vivo, CB.17 SCID mice
From the text: These tumors were harvested, dissociated, pooled and re-implanted in a limiting dilution assay at 10, 30, 100 cells/flank into a new cohort of CB.17 SCID mice and allowed to grow with no treatment.

[4] = tested on: LGR5 expression in JH109, ASPC1 and PANC1 tumors; experiment: QPCR of LGR5 expression in treated pancreatic tumors; type: in vivo, mice; conditions: combination of 18G7H6A3 and SOC
Method: LGR5 expression in metastatic pancreatic patient derived xenografts was investigated using the quantitative polymerase chain reaction (QPCR). A sample of tumor tissue was flash frozen or added to a cryovial containing RNAlater (Qiagen, CA), and transferred to −70° C. after incubation at 4° C. for several hours. Total RNA was extracted using a Qiagen RNeasy extraction kit (Qiagen, CA), and cDNA was synthesized using a SuperScriptIII kit (Life Technologies, CA) and protocols provided by the manufacturer. Human LGR5 transcript abundance was measured using human specific LGR5 and GAPDH primers and the following thermal condition in the StepOne Thermocycler (Life Technologies, CA): 50° C. (2 min); 90° C. (2 min) and 40 cycles of 90° C. (15 sec) and 60° C. (1 min) and melt curve assessment (from 65° C.-95° C.). LGR5 abundance was quantified using 2^δCt equation.
LGR5 expression was investigated in a series of pancreatic tumors including JH109, ASPC1 and PANC1.

CHO-LGR5 cells = conditions: 5 hrs co-incubation
Method: CHO-LGR5 cells were grown to confluent and were spun down, resuspended in PBS and were counted. An aliquot of cells (approximately 100 k) were added to another tube containing 100 μM pre-warmed (37° C.) CFSE (Carboxyfluorescein succinimidyl ester) and the mixture was incubated in the cell incubator for 15 min. The final CFSE concentration was about 1 μM. Next, cells were washed and resuspended in pre-warmed medium and were placed in the incubator for another 30 minutes followed by washing with PBS. […] To ensure binding of the antibody to CHO-LGR5 cells, in some studies an aliquot of cells was also stained with a secondary goat anti-human PE conjugated antibody and was analyzed on the calibur machine in the laboratory. The U937 cells were stained with DDAO-SE (DDAO succinimidyl ester; 2 μM of dye for 100K cells) for 15 minutes and in a light protected place in the laboratory and at room temperature. Cells were then 1 ml of FBS (fetal bovine serum) followed by incubation in a light protected place for 5 minutes.

[5] = tested on: Panc1427 (UCSD1427) tumors; experiment: Panc1427 survival after debulk chemotherapy; type: in vivo, mice; conditions: 18G7H6A3 after debulk and removal of chemotherapy
From the text: FIG. 23 summarizes the results.

[6] = tested on: TCF/LEF promoter activation in HEK-293T cells expressing LGR5; experiment: TCF-LEF reporter (GFP) assay with Wnt3a plus R-spondins; type: cell-based, human; conditions: increasing concentrations of soluble antibody; Wnt3a plus RSPO1, RSPO2 or RSPO3
Method: Parental HEK-293T cells and HEK-293T cell stably expressing LGR5 were transduced with a TCF-LEF reporter vector-containing lentivirus (GFP Cignal, QIAGEN) and selected for stable expression of the reporter. Parental and LGR5 expressing stable reporter lines were plated at 25,000/well in a 96 well plate, attached overnight, serum starved and treated with antibodies or vehicle for 6 h, then treated with recombinant human Wnt3a (3 nM) and recombinant human R-spondins for 18 h. Two concentrations for each R-spondins1-3 and one concentration of R-spo4 were tested (100 pM, 300 pM, 1 nM, 3 nM or 10 nM) based on our analysis of the activity of the different R-spondins in activation of the TCF/LEF reporter cell lines. The reporter driven GFP signal was measured on a plate reader. All experiments shown are pooled data from three independent experiments (each experiment performed in duplicate) for each R-spondin tested (data are means+SD).

PANC1 tumors = experiment: PANC1 pancreatic cancer xenograft tumor growth; type: in vivo, CB.17 SCID mice
Method: Gemcitabine was administered in assigned group for 3 weeks to inhibit tumor growth. All mice were monitored twice weekly for body weight and tumor size, as well as overall health and appearance.

BLG293 tumors = experiment: BLG293 small cell lung cancer patient derived xenograft tumor growth; type: in vivo, CB.17 SCID mice; conditions: 15 mg/kg BIW
Method: Patient derived small cell lung cancer xenograft model. Dissociated tumor cells from BLG293 tumors were implanted into CB.17 SCID mice in Matrigel subcutaneously, and monitored twice weekly for tumor size and body weight. When tumors reached an average of 130 mm3, mice were randomized. Mice were treated with either PBS, antibody control MOPC, or 18G7H6A3. Mice were dosed BIW at 15 mg/kg for. All mice were monitored twice weekly for body weight and tumor size, as well as overall health and appearance, until termination.

[7] = tested on: human CTCs (HLA+LGR5+ cells) in peripheral blood

18G7H6A3
time to progression of re-implanted cells compared to FOLFIRI alone ([1]; 18G7H6A3 FOLFIRI combination): delayed time to progression | tumorigenicity of re-implanted cells compared to FOLFIRI alone ([1]; cells from mice treated in combination with FOLFIRI): greatly decreased tumorigenicity | reduction of cancer stem cell frequency by linear regression analysis (factor) ([1]; in combination with FOLFIRI vs FOLFIRI, day 40): 6 | differentially expressed tumor promoter genes ([2]; combination of FOLFIRI and 18G7H6A3): downregulation of more tumor promoters such as ALDOC, CDH5, ITGA2 | differentially expressed tumor promoter genes vs. Vehicle ([2]; single agent): ANGPT2, AKAP12 and ADM that were downregulated | mice with complete eradication of their tumor (no measureable tumor detected) ([3]; chemotherapy combination, n=7): Three | greater tumor growth inhibition compared to chemotherapy alone ([3]; combined with gemcitabine and nab-paclitaxel chemotherapy): 77% | tumor volume reduction, combination treatment compared to FolFiri regimen (CT3 tumors; day 61): about 58% | tumor volume reduction, combination treatment compared to FolFiri regimen (CT3 tumors; day 65): ~53% | tumor volume reduction, combination treatment compared to FolFiri regimen (CT3 tumors; day 68): ~45% | tumor volume reduction, combination treatment compared to FolFiri regimen (CT3 tumors; day 71): ~33% | tumor volume reduction, combination treatment compared to FolFiri regimen (CT3 tumors; day 75): ~37% | growth of CT3 tumors, combination compared to FolFiri regimen (CT3 tumors; in combination with FolFiri): reduced growth of CT3 tumors | cancer stem cell frequency by linear regression analysis (MDA-MB-231-LM3 model; 18G7H6A3 plus paclitaxel): reduced cancer stem cell frequency | inhibition in tumor growth compared to paclitaxel alone (MDA-MB-231-LM3 model; in combination with paclitaxel): minimal additive inhibition in tumor growth | tumorigenicity of re-implanted cells compared to paclitaxel alone (MDA-MB-231-LM3 model; in combination with paclitaxel): greatly decreased tumorigenicity | LGR5 expression in tumors (QPCR) [4]: reduced to levels comparable to controls | double positive population on co-incubation of U937-DDAO-SE and CHO-LGR5-CFSE cells (CHO-LGR5 cells): identified a double positive population of cells | health of animals compared to the control animals [5]: noticeably more healthy | induction of TCF/LEF promoter driven GFP expression by Wnt3a plus RSPO [6]: did not affect the induction of TCF/LEF promoter driven GFP expression | tumor growth inhibition, single agent (PANC1 tumors; 15 mg/kg twice per week ip, day 70 post implantation): up to 30% | tumor growth inhibition compared to gemcitabine alone group (PANC1 tumors; in combination with gemcitabine, day 80 post implantation): up to 52% | tumor growth inhibition compared to MOPC antibody (BLG293 tumors): 24.7% | tumor growth inhibition compared to PBS (BLG293 tumors): 24.9% | percentage of circulating HLA+LGR5+ cells ([7]; 18G7H6A3 15 mg/kg twice/week ip vs. MOPC): significantly reduced | percentage of HLA+ cells ([7]; MOPC vs. 18G7H6A3): did not significantly change | circulating HLA+LGR5+ cells ([7]; combination of 18G7H6A3 and SOC, concurrent and debulk settings): almost completely ablated HLA+LGR5+ cells
